Experimental data reported in PubChem BioAssay (NCATS).
This list was built around the results that the source calls inconclusive (neither active nor inactive); the mix of calls is not that of the screen. For some of these results: Potencies beside an inconclusive call are fits to weak or partial responses and may not hold up. Calls of active or inactive are those of the source. Unless noted, the call rests on the fitted dose curve; in most records, active means well fitted curve in the direction sought with a large enough effect; inconclusive means small, poorly fitted or top-dose-only effect, or another doubt; inactive means no such curve, though single readings can be large; an effect the other way counts as inactive or inconclusive.

How the values were obtained:
CAOV3 = experiment: Primary qHTS to identify gynecologic anti-cancer compounds using libraries of approved drugs and bioactive compounds (AID 1345084); details: Gynecologic cancer cell panel viability, ATPlite luminescence, 48 h; series mostly up to 57.5 µM; further: nearly all actives have a fitted effect of over 55% in size; further: potency means the concentration at half of the fitted maximal effect; on activity change, negative = cytotoxicity: on the % scale 0 is the no-effect control and ±100 the full control effect
How it was run: (§1)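 Five-concentration response, 48 h; readout is ATP-driven luciferase luminescence.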

JEG-3 = experiment: as above; details: Gynecologic cancer cell panel viability, ATPlite luminescence, 48 h; series mostly up to 57.5 µM
How it was run: as §1

PA-1 = experiment: as above; details: Gynecologic cancer cell panel viability, ATPlite luminescence, 48 h; series mostly up to 57.5 µM
How it was run: as §1

[1] = Primary fluorescence-based thiol-reactive (MSTI) qHTS assay for identification of artifact compounds. (AID 1845221); further: potency means the concentration at half of the fitted maximal effect;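 further: thiol-reactive compounds lower the probe fluorescence signal; nearly all actives have a fitted effect of over 65% in size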
How it was run: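 In PBS pH 7.4 with 2% DMSO, each compound met 4 uM MSTI for one hour at ambient temperature, shielded from light, before fluorescence detection.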

[2] = Primary redox qHTS assay for identification of artifact compounds. (AID 1845223); further: potency means the concentration at half of the fitted maximal effect;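 on redox activity (% of DA3003): 0% = DMSO and 100% = reference compound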
How it was run: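 Amplex Red (25 uM) and HRP (250 mU/mL) in HBSS, with compounds for 15 min, then 250 uM DTT for 30 min, room temperature, dark. Fluorescence 525/598 nm read; normalized to DMSO and 10 uM DA3003; Hill fit.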

[3] = Primary qHTS for inhibitors of nuclear receptor binding SET domain protein 2 (NSD2) in an isogenic RCH-ACV NSD2 p.E1099K mutant (9B) (AID 1645876); details: activity change, negative = viability loss: at 44.9 µM (top of the series) unless noted; further: nearly all actives have a fitted effect of over 70% in size; further: potency means the concentration at half of the fitted maximal effect; on activity change, negative = viability loss: on the % scale 0 is the no-effect control and ±100 the full control effect
[4] = Primary qHTS for inhibitors of nuclear receptor binding SET domain protein 2 (NSD2) in an RCH-ACV wild type WT cells (2C) (AID 1645877); details: activity change, negative = cell killing: at 44.9 µM (top of the series) unless noted; further: on the % scale 0 is the no-effect control and ±100 the full control effect; nearly all actives have a fitted effect of over 70% in size
Tov-21-G = experiment: Primary qHTS to identify gynecologic anti-cancer compounds using libraries of approved drugs and bioactive compounds (AID 1345084); details: Gynecologic cancer cell panel viability, ATPlite luminescence, 48 h; series mostly up to 57.5 µM; further: nearly all actives have a fitted effect of over 55% in size; further: potency means the concentration at half of the fitted maximal effect; on activity change, negative = cytotoxicity: on the % scale 0 is the no-effect control and ±100 the full control effect
How it was run: as §1

[5] = P-glycoprotein substrates identified in KB-3-1 adenocarcinoma cell line, qHTS therapeutic library screen (AID 1346986); further: nearly all actives have a fitted effect of over 60% in size
How it was run: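 Counter-screen: cherry-picked hits retested in the KB pair and in HEK-293 pcDNA/MDR-19 cells ± tariquidar. Primary screen used 72 h CellTiter-Glo viability in KB-3-1 and KB-8-5-11.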

[6] = target: Cytochrome P450 2C9 (Homo sapiens) (UniProt P11712); experiment: Cytochrome P450 family 2 subfamily C member 9 (CYP2C9) small molecule antagonists: luciferase biochemical (cell-free) qHTS assay (AID 1645842; active means well fitted curve in the direction sought with a large enough effect in the repeat runs; inconclusive means weak or mixed curves; inactive means no such curve, though single readings can be large; an effect the other way counts as inactive or inconclusive; further: nearly all actives have a fitted effect of over 55% in size; further: potency means the concentration at half of the fitted maximal effect)
Sequence of UniProt P11712 (P11712 whole entry, looked up): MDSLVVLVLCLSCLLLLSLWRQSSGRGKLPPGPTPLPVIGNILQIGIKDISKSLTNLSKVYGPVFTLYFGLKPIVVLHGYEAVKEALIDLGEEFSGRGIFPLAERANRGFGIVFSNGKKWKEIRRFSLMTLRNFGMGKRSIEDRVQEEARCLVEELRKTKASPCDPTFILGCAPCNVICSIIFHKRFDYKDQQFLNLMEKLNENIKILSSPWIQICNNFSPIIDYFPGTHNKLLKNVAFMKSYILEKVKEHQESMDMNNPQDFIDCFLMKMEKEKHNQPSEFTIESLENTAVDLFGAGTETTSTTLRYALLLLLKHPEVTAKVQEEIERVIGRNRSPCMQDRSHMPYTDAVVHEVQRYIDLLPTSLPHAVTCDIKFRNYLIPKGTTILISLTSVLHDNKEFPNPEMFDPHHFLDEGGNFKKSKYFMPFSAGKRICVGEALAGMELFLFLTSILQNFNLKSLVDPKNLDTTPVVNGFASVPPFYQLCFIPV
How it was run: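 Luminescence, after 20 min with luciferin detection reagent, reflected CYP2C9 turnover during a 1 h NADPH-driven reaction at 37C. Enzyme-substrate mix contained 0.4% bovine serum albumin and was preincubated with compound 10 min at room temperature.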

OV90 = experiment: Primary qHTS to identify gynecologic anti-cancer compounds using libraries of approved drugs and bioactive compounds (AID 1345084); details: Gynecologic cancer cell panel viability, ATPlite luminescence, 48 h; series mostly up to 57.5 µM; further: nearly all actives have a fitted effect of over 55% in size; further: potency means the concentration at half of the fitted maximal effect; on activity change, negative = cytotoxicity: on the % scale 0 is the no-effect control and ±100 the full control effect
How it was run: as §1

SKOV3 = experiment: as above; details: Gynecologic cancer cell panel viability, ATPlite luminescence, 48 h; series mostly up to 57.5 µM
How it was run: as §1

[7] = tested on: Zika virus NS2B-NS3 protease (unlinked complex); experiment: Primary screen GU Rhodamine qHTS for Zika virus inhibitors: Unlinked NS2B-NS3 protease assay (AID 1347159); details: Recombinant ZIKV NS2B-NS3 protease, Rhodamine110 substrate fluorescence; activity change, negative = inhibition: at 107 µM (top of the series); further: nearly all actives have a fitted effect of over 60% in size; further: potency means the concentration at half of the fitted maximal effect
How it was run: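 Noncovalent NS2B hydrophilic domain–NS3 protease domain complex (25 nM) preincubated 15 min at room temperature with compounds (up to 114 microM) in 10 mM Tris-HCl pH 8.0, 0.01% Tween 20; 1.5 microM Rhodamine110 substrate added, fluorescence change over 15 min fitted to Hill equation.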

[8] = target: Cytochrome P450 2D6 (Homo sapiens) (UniProt P10635); experiment: Cytochrome P450 family 2 subfamily D member 6 (CYP2D6) small molecule antagonists: luciferase biochemical (cell-free) qHTS assay (AID 1645840; active means well fitted curve in the direction sought with a large enough effect in the repeat runs; inconclusive means weak or mixed curves; inactive means no such curve, though single readings can be large; an effect the other way counts as inactive or inconclusive)
Sequence of UniProt P10635 (P10635 whole entry, looked up): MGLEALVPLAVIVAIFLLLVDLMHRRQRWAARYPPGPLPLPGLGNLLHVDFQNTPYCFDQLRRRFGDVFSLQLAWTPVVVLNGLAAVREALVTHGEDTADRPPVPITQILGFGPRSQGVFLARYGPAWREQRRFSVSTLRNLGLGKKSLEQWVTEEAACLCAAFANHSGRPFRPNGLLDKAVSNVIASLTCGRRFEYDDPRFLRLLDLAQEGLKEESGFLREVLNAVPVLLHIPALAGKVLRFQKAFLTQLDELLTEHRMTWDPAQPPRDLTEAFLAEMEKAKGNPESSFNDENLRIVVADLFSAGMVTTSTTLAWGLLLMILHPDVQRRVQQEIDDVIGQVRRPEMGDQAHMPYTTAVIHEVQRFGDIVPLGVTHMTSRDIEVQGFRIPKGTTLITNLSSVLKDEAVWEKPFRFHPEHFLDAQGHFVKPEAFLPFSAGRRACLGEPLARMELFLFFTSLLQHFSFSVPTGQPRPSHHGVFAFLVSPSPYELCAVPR
How it was run: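 P450-Glo luminescent screen: recombinant CYP2D6 enzyme–proluciferin substrate mix preincubated with compound 10 min at room temperature, then NADPH regeneration added for 1 h at room temperature. Detection reagent added for 20 min; luciferin light read as relative luminescence units.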

[9] = target: Phospholipid hydroperoxide glutathione peroxidase GPX4 (Homo sapiens) (UniProt P36969); experiment: Primary qHTS Assay for Inhibitors of Recombinant Selenoprotein Glutathione Peroxidase 4 (GPX4) (AID 1845192); details: activity change, negative = inhibition: at 50 µM (top of the series) unless noted; further: on the % scale 0 is the no-effect control and ±100 the full control effect; nearly all actives have a fitted effect of over 65% in size
Sequence of UniProt P36969 (P36969 whole entry, looked up): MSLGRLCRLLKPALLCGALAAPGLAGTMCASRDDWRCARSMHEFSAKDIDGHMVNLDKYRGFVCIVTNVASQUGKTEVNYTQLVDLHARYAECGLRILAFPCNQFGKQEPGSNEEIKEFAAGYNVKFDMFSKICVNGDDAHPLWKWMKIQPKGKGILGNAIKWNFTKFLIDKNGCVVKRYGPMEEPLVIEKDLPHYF
How it was run: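 NADPH consumption, followed by fluorescence at 340/450 nm between 0 and 15 min, reports GPX4 activity via coupled glutathione reductase (100 nM). Enzyme 200 nM was pre-exposed to compound 30 min; 0.5 mM cumene hydroperoxide and 1 mM GSH served as substrates.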
Tags describe the fitted curve by direction and shape.

For CC1CCC2(C(=O)OC3OC(CO)C(O)C(O)C3O)CCC3(C)C(=CCC4C5(C)CCC(O)C(C)(CO)C5CCC43C)C2C1(C)O (configuration not stated), the Potency (CAOV3) was inconclusive: 12.6 µM [cytotoxic, single point], the Potency (JEG-3) was “inactive” and the Potency (PA-1) was “inactive”.

For CC1(C)CC[C@]2(C(=O)O[C@@H]3O[C@H](CO)[C@@H](O)[C@H](O)[C@H]3O)CC[C@]3(C)C(=CCC4[C@@]5(C)CC[C@H](O[C@@H]6O[C@H](C(=O)O)[C@@H](O)[C@H](O)[C@H]6O)[C@@](C)(CO)C5CC[C@]43C)C2C1 (some centres not stated), the activity change, negative = thiol reactive [1] was inactive: 129% [at 11.5 µM], the redox activity (% of DA3003) [2] was inactive: 15.6% [at 11.5 µM] and the Potency (CAOV3) was inconclusive: 5.01 µM [cytotoxic, single point]. The activity change, negative = cytotoxicity (JEG-3) was inactive: -2.45% [at 11.6 µM].

For CCOC(=O)C(CCc1ccccc1)NC1CSC(c2cccs2)CN(CC(=O)O)C1=O (configuration not stated), the Potency [3] was “inactive”, the Potency [4] was “inactive” and the Potency [2] was inconclusive: 5.32 µM [activator, full curve, poor fit]. For the same compound, the Potency (CAOV3) was inconclusive: 39.8 µM [rising, single point], the Potency (JEG-3) was “inactive” and the Potency (Tov-21-G) was “inactive”.

For CC(C)S(=O)(=O)N[C@H]1CCOC[C@@H]1c1ccc(-c2ccc(C#N)s2)cc1, the Potency [5] was “inactive”, the Potency [6] was active: 0.213 µM and the Potency [3] was “inactive”. The Potency [2] was inconclusive: 33.6 µM [activator, partial curve, poor fit], the Potency (CAOV3) was inconclusive: 35.5 µM [rising, partial curve, poor fit] and the Potency (OV90) was “inactive”. The Potency (SKOV3) was “inactive” and the Potency (Tov-21-G) was “inactive”.

For C/C=C/C=C/C1=C2C(=O)C3(C)C4C(C(=O)CC(O)/C=C/C)=C(O1)C1(C)C2C2(C)OC1(O)C4(C)OC23O (configuration not stated), the Potency [7] was inconclusive: 7.94 µM [inhibitor, partial curve, poor fit], the Potency [3] was inconclusive: 10 µM [inhibitor, partial curve] and the Potency [1] was active: 5.82 µM. For the same compound, the Potency [2] was inconclusive: 13 µM [activator, single point], the Potency (CAOV3) was “inactive” and the Potency (OV90) was “inactive”. For the same compound, the Potency (PA-1) was “inactive”.

In the case of O=C(NCc1ccccn1)Nc1nnc(-c2ccco2)o1, the Potency [7] is reported as “inactive”, the Potency [8] is reported as “inactive” and the Potency [6] is reported as “inactive”. For the same compound, the activity change, negative = inhibition [9] was inconclusive: -30.2% [inhibitor], the Potency (CAOV3) was inconclusive: 0.141 µM [rising, full curve, poor fit] and the Potency (OV90) was “inactive”.

With C[C@@H]1O[C@@H](O[C@H]2[C@H](O)[C@@H](O)[C@H](OC[C@H]3O[C@@H](OC(=O)[C@]45CCC(C)(C)C[C@H]4C4=CCC6[C@@]7(C)C[C@@H](O)[C@H](O)[C@@](C)(CO)C7[C@H](O)C[C@@]6(C)[C@]4(C)CC5)[C@H](O)[C@@H](O)[C@@H]3O)O[C@@H]2CO)[C@H](O)[C@H](O)[C@H]1O (some centres not stated) the Potency [2] was inconclusive: 2.01 µM [activator, partial curve], the activity change, negative = cytotoxicity (CAOV3) was inactive: -8.06% [at 11.6 µM] and the activity change, negative = cytotoxicity (JEG-3) was inactive: -6.46% [at 11.6 µM].
